In all, about 340,000 compounds went through this assay and about 6,900 (2%) were called active. Rule as the data show it: active = inhibition above about 30%; inactive = below that, where a call was filed. This is a selection; strong and weak results do not stand in their true shares. Where no call is shown, the source filed none.

Sequence of UniProt P14416 (P14416 whole entry, looked up): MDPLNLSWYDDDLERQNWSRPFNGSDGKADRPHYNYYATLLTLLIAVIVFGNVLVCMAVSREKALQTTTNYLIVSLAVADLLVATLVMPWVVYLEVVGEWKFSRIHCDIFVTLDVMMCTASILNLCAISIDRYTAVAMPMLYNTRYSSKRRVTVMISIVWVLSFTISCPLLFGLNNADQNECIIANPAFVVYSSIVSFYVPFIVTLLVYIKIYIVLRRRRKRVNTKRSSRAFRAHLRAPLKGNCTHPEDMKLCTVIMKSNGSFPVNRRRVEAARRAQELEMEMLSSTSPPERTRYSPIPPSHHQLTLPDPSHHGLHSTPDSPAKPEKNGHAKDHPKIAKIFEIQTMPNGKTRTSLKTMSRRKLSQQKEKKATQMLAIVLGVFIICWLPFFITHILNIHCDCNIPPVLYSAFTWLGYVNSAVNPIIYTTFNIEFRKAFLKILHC

In this experiment the target is D(2) dopamine receptor (Homo sapiens) (UniProt P14416). In words: HTS Assay for Allosteric Antagonists of the Human D2 Dopamine Receptor: Primary Screen for Antagonists. Also: 0% is about no effect. Conditions: HEK293 TREx D2 cells, calcium flux, dopamine EC80; at 10 µM; stronger effect = higher value. Put shortly:
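Tetracycline-induced HEK293 TREx cells expressing D2 receptor forced-coupled to calcium signalling, loaded with no-wash calcium dye. Compounds added and calcium flux read 180 s, then dopamine added at EC80 and read a further 180 s.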
For orientation: Calcium flux is commonly read through the fluorescence of an indicator in the cells.
As to `Cc1ccc2c(c1)N(CC(=O)NCCc1ccc(Cl)cc1)C(=O)c1cccnc1O2`, the inhibition (commonly the relative decrease from the control value, in per cent) is -5.93%.

For `Cc1cc(-c2ccc(S(=O)(=O)Nc3ccccc3F)s2)on1`, the inhibition is -2.93%.

For the compound `CC(NC(=O)Cc1ccc(NC(=O)N2CCSc3ncccc32)cc1)c1ccccc1` (stereo not drawn), the inhibition is 5.23%.

With `O=C(NCc1ccccc1)C(=O)Nc1ccc2nc3n(c(=O)c2c1)CCCCC3`, the inhibition was -7.06%.

For `COc1ccccc1NC(=O)CN1C(=O)C2(SCC(=O)N2c2ccc(F)c(F)c2)c2ccccc21` (stereo not drawn), the inhibition was -8.32%.

For `Cc1nnc(NC(=O)c2nc(SCc3ccccc3F)ncc2Cl)s1`, the inhibition was -1.8%.

Take `COc1cc(NC(=O)CSc2nc(-c3ccco3)cc(C(F)(F)F)n2)cc(OC)c1OC`: the inhibition is 5.78%.

For `CCc1cc(C(=O)NCc2ccccc2)no1`, the inhibition was -14%.

In the case of `Cc1ccc(CN2COc3ccc4c(-c5ccccc5)cc(=O)oc4c3C2)cc1`, the inhibition is -16.6%.

Regarding `Cc1cc(C)nc(-n2nc(C)c3c2N(C)C(=O)CC3c2ccc(Cl)cc2)n1` (stereo not drawn), the inhibition amounted to 18.5%.

In the case of `Cc1c(C(=O)Nc2cccc(Cl)c2)oc2ccc(S(=O)(=O)N3CCCCCC3)cc12`, the inhibition is -8.28%.

For `COC(=O)c1ccc(C2c3c(-c4ccccc4O)n[nH]c3C(=O)N2Cc2ccncc2)cc1` (stereo not drawn), the inhibition was 10.7%.

Turning to `COc1ccc(-c2nc(CNS(=O)(=O)c3ccc(Br)cc3)cs2)cc1`, the inhibition was determined as 7.09%.

For `CC(C)c1nn2c(=O)cc(COC(=O)c3ccccc3NC(=O)COc3ccccc3)nc2s1`, the inhibition turned out to be 9.38%.

As for `Cc1nnc(NC(=O)CSc2nccn2Cc2ccc(F)cc2)s1`, the inhibition is -5.44%.

For the compound `CCOc1ccccc1NC(=O)c1c(NCc2cccs2)sc2c1CCC(C)C2` (stereo not drawn), the inhibition came out at 11.1%.

For `CCC(=O)N1CCc2cc(OC)c(OC)cc2C1COc1ccccc1OC` (stereo not drawn), the inhibition is -25.8%.

Take `Cc1cccc(OCc2ccc(-c3nc(C#N)c(NCc4cccnc4)o3)o2)c1`: the inhibition was -5.43%.

Consider `O=C(CSc1nc(-c2cccc(F)c2)[nH]c1-c1ccccc1)Nc1ccc2c(c1)OCCO2`, for which the inhibition came out at 2.5%.

`CCc1ccc(NC(=O)CCCc2nnc3n(CC(C)C)c(=O)c4sccc4n23)cc1`: the inhibition amounted to 13.6%.

Take `Nn1c(SCCOc2ccccc2)nnc1-c1cccnc1`: the inhibition is active: 32.7%.

Turning to `O=C(Nc1c2c(nn1-c1ccc(Cl)cc1)CS(=O)(=O)C2)c1cccc(F)c1`, the inhibition turned out to be 5.09%.

For `Cc1ccc(-c2nc(CS(=O)CC(=O)N3CCN(c4cccc(Cl)c4)CC3)c(C)o2)cc1` (stereo not drawn), the inhibition was found to be 3.11%.

Turning to `CCCOc1cccc(C2c3c(oc4ccccc4c3=O)C(=O)N2c2nncs2)c1` (stereo not drawn), the inhibition was -16.9%.

For `COc1ccc(N2CCN(S(=O)(=O)c3ccc(OC)c(C(=O)N4CCCC4)c3)CC2)cc1`, the inhibition is active: 47.5%.

Consider `O=C(Nc1cccc(O)c1)c1noc2c1CCc1ccccc1-2`, for which the inhibition is 9.35%.

On to `CC1CCCCC1NC(=O)C1CCN(c2c3c(nc4ncnn24)CCC3)CC1` (stereo not drawn), for which the inhibition is active: 34.1%.

Turning to `COc1cccc(C(=O)c2cn(CC(=O)NCc3ccccc3Cl)c3nc(C)ccc3c2=O)c1`, the inhibition stood at 0.69%.

For `Cc1ccc(C)c(Cn2c(CCCNC(=O)C3CCCCC3)nc3ccccc32)c1`, the inhibition was -8.3%.

Regarding `Cc1ccc2cccc(NC(=O)COc3ccccc3Cl)c2n1`, the inhibition was -10.3%.

In the case of `Cc1c(Cl)cccc1NC(=O)Cn1cc(C(=O)c2cccs2)c2ccccc21`, the inhibition stood at 12.2%.

For `Cc1nc(-c2cccc(NC(=O)Nc3ccccc3C(F)(F)F)c2)no1`, the inhibition is -7.74%.

With `CCc1ccc(-n2c(=O)c3sc4ccccc4c3n(CC(=O)N3CCCC3)c2=O)cc1`, the inhibition came out at 8.58%.

Take `O=C(CSc1nc2ccsc2c(=O)n1Cc1ccccc1Cl)NCc1ccc(F)cc1`: the inhibition was found to be 17.5%.

On to `CCc1cccc(NC(=O)CN2Cc3ccccc3C2=O)c1`, for which the inhibition was -15.8%.

For `COc1ccc(-c2cc(C)no2)cc1S(=O)(=O)NCc1cccs1`, the inhibition was 8.58%.

`CCOc1ccc(C2CC(=O)Nc3cc4c(cc32)OCO4)cc1OC` (stereo not drawn): the inhibition was 18.8%.

With `COc1cc(CNC(=O)C2CCCCN2S(=O)(=O)c2ccc(F)cc2)cc(OC)c1OC` (stereo not drawn), the inhibition was -3.5%.

For `CCOC(=O)c1c(S(=O)(=O)N2CCCC(C(=O)Nc3ccccn3)C2)c(C)n(C)c1C` (stereo not drawn), the inhibition came to 28.2%.

Take `COc1ccc(CNC(=O)c2cc(-c3ccc(OC)cc3)nc3n[nH]c(-c4cccc([N+](=O)[O-])c4)c23)cc1`: the inhibition is -14.2%.

As for `Cc1ccc(CNC(=O)C2CCN(S(=O)(=O)c3ccc(F)cc3)CC2)cc1`, the inhibition is -14.7%.

For `CC(=O)N1CCc2c(sc3c2c(=O)n(-c2ccc(C)cc2)c(=O)n3Cc2c(F)cccc2Cl)C1`, the inhibition was -6.86%.

As for `COc1ccccc1CNC(=O)c1cccn1-c1nnc(N2CCCCC2)s1`, the inhibition was determined as 0.837%.

As for `CN(C)S(=O)(=O)c1ccc(Cl)c(NC(=O)CN2CCC(Cc3ccccc3)CC2)c1`, the inhibition is active: 42.3%.

For `COc1cccc(CN(C(=O)c2oc3ccccc3c2C)C2CCS(=O)(=O)C2)c1` (stereo not drawn), the inhibition turned out to be 7.11%.

Turning to `CCc1cccc(C)c1NC(=O)CCS(=O)(=O)c1ccc2c(c1)oc(=O)n2C`, the inhibition was 3.27%.

Regarding `O=C(Cc1ccc(Cl)cc1)Nc1ccc2oc(-c3ccccc3F)nc2c1`, the inhibition worked out at 9.31%.

As for `Cc1cc2n(n1)CCC(=O)N2Cc1ccc(C(=O)Nc2cccc(C(F)(F)F)c2)cc1`, the inhibition stood at 5.44%.

`COC(=O)c1cc2sc(C)cc2n1Cc1nc(-c2ccc(C)cc2)oc1C`: the inhibition was -4.59%.

Take `CCC1ON(C(C)C)C2c3nc4ccccc4n3CC12` (stereo not drawn): the inhibition is active: 32.2%.

With `CC(C)c1ccc(Nc2c(-c3ccc(N(C)C)cc3)nc3cnccn23)cc1`, the inhibition came out at 10.5%.

Take `Cc1ccc(Nc2c(-c3ccc(C)cc3)nc3c(C)cccn23)cc1`: the inhibition is -5.09%.

For the compound `COc1ccc(-c2noc(CSc3nc4ccccc4[nH]3)n2)cc1`, the inhibition stood at 13.6%.

For the compound `O=C(NCCc1ccc(Cl)cc1)C(=O)NCC(c1cccs1)S(=O)(=O)c1ccccc1` (stereo not drawn), the inhibition is 16%.

In the case of `CCCCc1nn2c(=O)cc(COC(=O)c3ccccc3C)nc2s1`, the inhibition is -10.9%.

Regarding `COc1ccc(NC(=O)C(C(C)C)N2Cc3ccccc3C2=O)cc1` (stereo not drawn), the inhibition is 5.99%.

In the case of `CCc1ccccc1NC(=O)NC(CC)Cn1nnc2ccccc2c1=O` (stereo not drawn), the inhibition is -22.7%.

Take `CCOc1ccccc1NS(=O)(=O)c1cc(-c2cnc(C3CC3)o2)ccc1C`: the inhibition was 18.1%.

In the case of `Cc1ccc(-n2nc3c(=O)n(C(C)C(=O)NCc4ccccc4C)nc(C)c3c2C)cc1` (stereo not drawn), the inhibition is 0.602%.

As for `O=C(c1cc2ccc3cccnc3c2[nH]1)N1CCN(c2cccc(Cl)c2)CC1`, the inhibition is -16%.

`COc1cc(OC)cc(C(=O)NCCc2csc(-c3ccc(C(F)(F)F)cc3)n2)c1`: the inhibition is -5.79%.

On to `COc1ccccc1NC(=O)c1sc2nc(C)c(C(=O)Nc3ccc(C)cc3C)c(-c3ccccc3Cl)c2c1N`, for which the inhibition came to 0.682%.

Regarding `Cc1ccc(NC(=O)CCN2C(=O)c3ccccc3Sc3ncccc32)c(Cl)c1`, the inhibition is -3.24%.

In the case of `Cc1ccc2oc(=O)c3cc(C(=O)NCCc4ccc(Cl)cc4)sc3c2c1`, the inhibition is -4.2%.

`CCS(=O)(=O)N1CCc2cc(C(=O)NCc3ccccc3Cl)ccc21`: the inhibition was -12.3%.

`O=c1oc2ccccc2cc1-c1nc(-c2cccs2)no1`: the inhibition was 6.06%.

In the case of `CCC(=O)Nc1sc2c(c1C(=O)Nc1ccc(Br)cc1)CCCCC2`, the inhibition turned out to be 6.56%.

In the case of `Cc1cccc(N2CCN(C(=O)c3cc4ccc5cccnc5c4[nH]3)CC2C)c1` (stereo not drawn), the inhibition came to 11.4%.

In the case of `CN1CCN(C(CNC(=O)c2c(F)cccc2F)c2ccc3c(c2)OCO3)CC1` (stereo not drawn), the inhibition is -19%.

Take `O=c1c2ccccc2n(Cc2cccc(Cl)c2)c(=O)n1Cc1ccccc1`: the inhibition was determined as 10.8%.

On to `CCN(C(=O)Cn1ncc2c(=O)oc3ccccc3c21)c1ccccc1F`, for which the inhibition was -7%.

On to `COCCc1nn2c(=O)cc(COC(=O)c3ccc(Br)cc3)nc2s1`, for which the inhibition was -6.87%.

`CCC(C)NC(=O)c1sc2nc3n(c(=O)c2c1C)CCC3` (stereo not drawn): the inhibition was 11.6%.

Turning to `CCCCCCn1ccc(=N)cc1`, the inhibition is active: 35.8%.

Turning to `COCCCNc1nc(NCc2ccc(C)cc2)c2cnn(C)c2n1`, the inhibition was -8.61%.

Turning to `COc1cccc2c1cc1c(=O)n(CC(=O)N3CCC(C)CC3)nc(C)n12`, the inhibition is -9.7%.

Consider `CCCCNC(=O)CN1CCN(c2ncc(NC(=O)c3ccc(Cl)cc3)cc2C(=O)O)CC1`, for which the inhibition came to 6.86%.

For `COc1cc(NC(=O)C2CCN(c3nc4ccccc4nc3C(F)(F)F)CC2)cc(OC)c1`, the inhibition was -11.7%.

Turning to `CCc1ccccc1N(CC)C(=O)C1CCN(c2ncnc3c2nc2n3CCCCC2)CC1`, the inhibition came to 3.21%.

Take `CCCOc1cccc(C2c3c(oc4ccc(F)cc4c3=O)C(=O)N2c2nc(C)c(C(C)=O)s2)c1` (stereo not drawn): the inhibition was 9.53%.

Consider `COc1ccc(CN2CCC(c3nc4ccc(Cl)cc4[nH]3)CC2)cc1`, for which the inhibition is active: 59.7%.

On to `COc1cccc(C(=O)NCC(=O)N2CCC3(CC2)NCCc2[nH]cnc23)c1OC`, for which the inhibition is active: 30.4%.

For the compound `Cc1cc(C)c(NC(=O)CSc2nc3c([nH]c4ccccc43)c(=O)n2C)c(C)c1`, the inhibition came to 6.55%.

In the case of `COc1ccc(CCNC(=O)c2ccc(Cn3c(=O)[nH]c4cc(OC)c(OC)cc4c3=O)cc2)cc1OC`, the inhibition was -15.7%.

As to `COc1cccc(C(=O)N(Cc2ccc(C)o2)C2CCS(=O)(=O)C2)c1` (stereo not drawn), the inhibition was -1.93%.

`COc1ccc(-c2cc(C(F)(F)F)nc(NCc3ccc(F)cc3)n2)cc1`: the inhibition is -24.9%.

On to `CCOc1ccc(NC(=O)CSc2oc(-c3ccc(C)cc3)nc2S(=O)(=O)c2ccc(C)cc2)cc1`, for which the inhibition was 20.9%.

Consider `O=C(COCc1cc(-c2cccs2)on1)Nc1cc(C(F)(F)F)ccc1Cl`, for which the inhibition came out at 4.57%.

Turning to `CC1CCN(S(=O)(=O)c2ccc3nc(N4CCN(c5ccc(F)cc5)CC4)ccc3c2)CC1`, the inhibition was 0.278%.

Regarding `COc1ccc(CCNc2ncnc3onc(C)c23)c(OC)c1`, the inhibition was found to be 6.47%.

With `COCCCn1c(=N)c(C(=O)NC2CCCCC2)cc2c(=O)n3cc(C)ccc3nc21`, the inhibition was -7.58%.

`OC(COc1cccc2ccccc12)CN1CCN(c2ccccc2Cl)CC1` (stereo not drawn): the inhibition was active: 39.1%.

For `CC1CCCCN1CCCNC(=O)Cn1ncc2c3ccccc3n(C)c2c1=O` (stereo not drawn), the inhibition was -7.68%.

With `Cc1ccc(S(=O)(=O)c2cc3cc(C(=O)Nc4ccc(C)cc4C)ccc3oc2=O)cc1`, the inhibition is 17.5%.

Consider `CC(C)c1ccc(NC(=O)Cc2cn(C)c3ccccc23)cc1`, for which the inhibition is active: 48.8%.

On to `CCSc1ccc2c(c1)N(CCCN1CCN(C)CC1)c1ccccc1S2`, for which the inhibition was active: 82.6%.

With `CC(=O)N1CCc2cc(Br)cc(S(=O)(=O)NCc3ccc(Cl)cc3)c21`, the inhibition was active: 68.1%.

Regarding `CCc1ccccc1NC(=O)c1ccc(F)c(S(=O)(=O)N2CCN(c3cccc(Cl)c3)CC2)c1`, the inhibition was found to be 18.6%.
